# In the supplement of paper PMC8728848:
# Some of the results follow.
# B1: RS-IIL (Ralstonia solanacearum) (protein)
# chain: AQQGVFTLPANTSFGVTAFANAANTQTIQVLVDNVVKATFTGSGTSDKLLGSQVLNSGSGAIKIQVSVNGKPSDLVSNQTILANKLNFAMVGSEDGTDNDYNDGIAVLNWPLG
# Legend:
# Assay in all cases: glycan array binding signal (z-score within array); higher = stronger binding
# Settings in all cases: glycan notation: IUPAC condensed, linker removed
# [1] = biological target: Fuc(a1-2)Gal
# Method in brief: (§1)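 The binding signal is a Z-score computed within each array and averaged over linkers. Arrays of the same protein sequence at different concentrations or buffers were also averaged together. Data originate from 3228 arrays in the Consortium for Functional Glycomics database, kept only where the protein sequence was available.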
# [2] = biological target: Fuc(a1-2)Gal(b1-3)GalNAc
# Method in brief: as §1
# [3] = biological target: Fuc(a1-2)Gal(b1-3)GalNAc(b1-3)Gal
# Method in brief: as §1
# [4] = biological target: Fuc(a1-2)Gal(b1-3)GalNAc(b1-3)Gal(a1-4)Gal(b1-4)Glc
# Method in brief: as §1
# [5] = biological target: Fuc(a1-2)Gal(b1-3)GalNAc(b1-4)[Neu5Ac(a2-3)]Gal(b1-4)Glc
# Method in brief: as §1
# [6] = biological target: Fuc(a1-2)Gal(b1-3)GlcNAc
# Method in brief: as §1
# [7] = biological target: Fuc(a1-2)Gal(b1-3)GlcNAc(b1-3)Gal(b1-4)Glc
# Method in brief: as §1
# [8] = biological target: Fuc(a1-2)Gal(b1-3)[Fuc(a1-4)]GlcNAc
# Method in brief: as §1
# [9] = biological target: Fuc(a1-2)Gal(b1-4)Glc
# Method in brief: as §1
# [10] = biological target: Fuc(a1-2)Gal(b1-4)GlcNAc
# Method in brief: as §1
# [11] = biological target: Fuc(a1-2)Gal(b1-4)GlcNAc(b1-3)Gal(b1-4)GlcNAc
# Method in brief: as §1
# [12] = biological target: Fuc(a1-2)Gal(b1-4)GlcNAc(b1-3)Gal(b1-4)GlcNAc(b1-3)Gal(b1-4)GlcNAc
# Method in brief: as §1
# [13] = biological target: Fuc(a1-2)Gal(b1-4)[Fuc(a1-3)]GlcNAc
# Method in brief: as §1
# [14] = biological target: Fuc(a1-2)Gal(b1-4)[Fuc(a1-3)]GlcNAc(b1-3)Gal(b1-4)[Fuc(a1-3)]GlcNAc
# Method in brief: as §1
# [15] = biological target: Fuc(a1-2)Gal(b1-4)[Fuc(a1-3)]GlcNAc(b1-3)Gal(b1-4)[Fuc(a1-3)]GlcNAc(b1-3)Gal(b1-4)[Fuc(a1-3)]GlcNAc
# Method in brief: as §1
# [16] = biological target: Fuc(a1-2)GlcNAc
# Method in brief: as §1
# [17] = biological target: Fuc(a1-2)[Gal(a1-3)]Gal
# Method in brief: as §1
# [18] = biological target: Fuc(a1-2)[Gal(a1-3)]Gal(b1-3)GlcNAc
# Method in brief: as §1
# [19] = biological target: Fuc(a1-2)[Gal(a1-3)]Gal(b1-4)Glc
# Method in brief: as §1
# [20] = biological target: Fuc(a1-2)[Gal(a1-3)]Gal(b1-4)GlcNAc
# Method in brief: as §1
# [21] = biological target: Fuc(a1-2)[Gal(a1-3)]Gal(b1-4)[Fuc(a1-3)]GlcNAc
# Method in brief: as §1
# [22] = biological target: Fuc(a1-2)[Gal(a1-4)]Gal(b1-4)GlcNAc
# Method in brief: as §1
# [23] = biological target: Fuc(a1-2)[GalNAc(a1-3)]Gal
# Method in brief: as §1
# [24] = biological target: Fuc(a1-2)[GalNAc(a1-3)]Gal(b1-3)GlcNAc
# Method in brief: as §1
# [25] = biological target: Fuc(a1-2)[GalNAc(a1-3)]Gal(b1-4)Glc
# Method in brief: as §1
# [26] = biological target: Fuc(a1-2)[GalNAc(a1-3)]Gal(b1-4)GlcNAc
# Method in brief: as §1
# [27] = biological target: Fuc(a1-2)[GalNAc(a1-3)]Gal(b1-4)[Fuc(a1-3)]GlcNAc
# Method in brief: as §1
# [28] = biological target: Fuc(a1-2)[GalNAc(a1-4)]Gal(b1-4)GlcNAc
# Method in brief: as §1
# [29] = biological target: Fuc(a1-2)[GalNAc(b1-3)]Gal
# Method in brief: as §1
# [30] = biological target: Fuc(a1-3)GlcNAc
# Method in brief: as §1
# [31] = biological target: Fuc(a1-3)[Gal(b1-4)]GlcNAc
# Method in brief: as §1
# [32] = biological target: Fuc(a1-3)[Gal(b1-4)]GlcNAc(b1-4)Gal(b1-4)[Fuc(a1-3)]GlcNAc
# Method in brief: as §1
# [33] = biological target: Fuc(a1-3)[Gal(b1-4)]GlcNAc(b1-4)Gal(b1-4)[Fuc(a1-3)]GlcNAc(b1-4)Gal(b1-4)[Fuc(a1-3)]GlcNAc
# Method in brief: as §1
# [34] = biological target: Fuc(a1-3)[Gal3S(b1-4)]GlcNAc
# Method in brief: as §1
# [35] = biological target: Fuc(a1-3)[GalNAc(b1-4)]GlcNAc
# Method in brief: as §1
# [36] = biological target: Fuc(a1-4)GlcNAc
# Method in brief: as §1
# [37] = biological target: Fuc(b1-3)GlcNAc
# Method in brief: as §1
# [38] = biological target: Gal(a1-2)Gal
# Method in brief: as §1
# [39] = biological target: Gal(a1-3)Gal
# Method in brief: as §1
# [40] = biological target: Gal(a1-3)Gal(b1-3)GlcNAc
# Method in brief: as §1
# [41] = biological target: Gal(a1-3)Gal(b1-4)Glc
# Method in brief: as §1
# [42] = biological target: Gal(a1-3)Gal(b1-4)GlcNAc
# Method in brief: as §1
# [43] = biological target: Gal(a1-3)Gal(b1-4)[Fuc(a1-3)]GlcNAc
# Method in brief: as §1
# [44] = biological target: Gal(a1-3)GalNAc
# Method in brief: as §1
# [45] = biological target: Gal(a1-3)[Gal(a1-4)]Gal(b1-4)GlcNAc
# Method in brief: as §1
# [46] = biological target: Gal(a1-4)Gal(b1-4)Glc
# Method in brief: as §1
# [47] = biological target: Gal(a1-4)Gal(b1-4)GlcNAc
# Method in brief: as §1
# [48] = biological target: Gal(a1-4)GlcNAc
# Method in brief: as §1
# [49] = biological target: Gal(a1-6)Glc
# Method in brief: as §1
# [50] = biological target: Gal(b1-2)Gal
# Method in brief: as §1
# [51] = biological target: Gal(b1-3)Gal
# Method in brief: as §1
# [52] = biological target: Gal(b1-3)GalNAc
# Method in brief: as §1
# [53] = biological target: Gal(b1-3)GalNAc(b1-3)Gal(a1-4)Gal(b1-4)Glc
# Method in brief: as §1
# [54] = biological target: Gal(b1-3)GalNAc(b1-4)Gal(b1-4)Glc
# Method in brief: as §1
# [55] = biological target: Gal(b1-3)GalNAc(b1-4)[Neu5Ac(a2-3)]Gal(b1-4)Glc
# Method in brief: as §1
# [56] = biological target: Gal(b1-3)GlcNAc
# Method in brief: as §1
# [57] = biological target: Gal(b1-3)GlcNAc(b1-3)Gal(b1-4)Glc
# Method in brief: as §1
# [58] = biological target: Gal(b1-3)GlcNAc(b1-3)Gal(b1-4)GlcNAc
# Method in brief: as §1
# [59] = biological target: Gal(b1-3)[Fuc(a1-4)]GlcNAc
# Method in brief: as §1
# [60] = biological target: Gal(b1-3)[Fuc(a1-4)]GlcNAc(b1-3)Gal(b1-4)GlcNAc
# Method in brief: as §1
binder,measurement,setting,value
B1,glycan array binding signal (z-score),[1],1.07
same,glycan array binding signal (z-score),[2],0.268
same,glycan array binding signal (z-score),[3],-0.324
same,glycan array binding signal (z-score),[4],0.116
same,glycan array binding signal (z-score),[5],0.021
same,glycan array binding signal (z-score),[6],0.926
same,glycan array binding signal (z-score),[7],0.723
same,glycan array binding signal (z-score),[8],0.862
same,glycan array binding signal (z-score),[9],1.23
same,glycan array binding signal (z-score),[10],1.01
same,glycan array binding signal (z-score),[11],1.12
same,glycan array binding signal (z-score),[12],1.31
same,glycan array binding signal (z-score),[13],0.407
same,glycan array binding signal (z-score),[14],0.782
same,glycan array binding signal (z-score),[15],1
same,glycan array binding signal (z-score),[16],0.445
same,glycan array binding signal (z-score),[17],-0.241
same,glycan array binding signal (z-score),[18],-0.372
same,glycan array binding signal (z-score),[19],-0.316
same,glycan array binding signal (z-score),[20],-0.318
same,glycan array binding signal (z-score),[21],-0.301
same,glycan array binding signal (z-score),[22],-0.123
same,glycan array binding signal (z-score),[23],-0.265
same,glycan array binding signal (z-score),[24],-0.366
same,glycan array binding signal (z-score),[25],-0.306
same,glycan array binding signal (z-score),[26],-0.337
same,glycan array binding signal (z-score),[27],0.302
same,glycan array binding signal (z-score),[28],-0.142
same,glycan array binding signal (z-score),[29],-0.364
same,glycan array binding signal (z-score),[30],-0.121
same,glycan array binding signal (z-score),[31],-0.198
same,glycan array binding signal (z-score),[32],-0.05
same,glycan array binding signal (z-score),[33],0.147
same,glycan array binding signal (z-score),[34],-0.256
same,glycan array binding signal (z-score),[35],-0.27
same,glycan array binding signal (z-score),[36],0.191
same,glycan array binding signal (z-score),[37],-0.275
same,glycan array binding signal (z-score),[38],-0.385
same,glycan array binding signal (z-score),[39],-0.378
same,glycan array binding signal (z-score),[40],-0.387
same,glycan array binding signal (z-score),[41],-0.386
same,glycan array binding signal (z-score),[42],-0.388
same,glycan array binding signal (z-score),[43],-0.274
same,glycan array binding signal (z-score),[44],-0.386
same,glycan array binding signal (z-score),[45],-0.379
same,glycan array binding signal (z-score),[46],-0.387
same,glycan array binding signal (z-score),[47],-0.384
same,glycan array binding signal (z-score),[48],-0.387
same,glycan array binding signal (z-score),[49],-0.387
same,glycan array binding signal (z-score),[50],-0.387
same,glycan array binding signal (z-score),[51],-0.386
same,glycan array binding signal (z-score),[52],-0.388
same,glycan array binding signal (z-score),[53],-0.384
same,glycan array binding signal (z-score),[54],-0.369
same,glycan array binding signal (z-score),[55],-0.372
same,glycan array binding signal (z-score),[56],-0.389
same,glycan array binding signal (z-score),[57],-0.332
same,glycan array binding signal (z-score),[58],-0.381
same,glycan array binding signal (z-score),[59],0.684
same,glycan array binding signal (z-score),[60],-0.042
